Source: PubChem BioAssay (NCI)
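In this assay, cells in 96-well plates receive the compound at five concentrations for 48 hours. Endpoints are linearly interpolated between the surrounding concentrations. GI50: concentration for 50% inhibition of growth. TGI marks complete inhibition of growth.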

tested on: NCI-H322M lung; assay: inhibition of tumour cell growth, NCI panel, 48 h

Row | SMILES | TGI [µM] | GI50 [µM]
1 | CCOC1CC(C)N(C(=O)c2ccccc2)O1 (centres undefined) | > 100 | –
2 | c1ccc2c(c1)OC(N1CCCC1)c1cnc(N3CCOCC3)nc1-2 (centres undefined) | > 100 | –
3 | O=C(N/N=C/c1cc(Br)cc(Br)c1[O-])c1ccccc1O.O=C(N/N=C/c1cc(Br)cc(Br)c1[O-])c1ccccc1O.[Co+2] | 16.7 | –
4 | O=CN1CCN(C(=O)c2ccc(Cl)c(Cl)c2)C1=S | 31.3 | –
5 | O=[N+]([O-])c1ccc(N=Nc2ccc(O)c3ccccc23)cc1 | > 100 | 9.85
6 | COc1ccc(-c2c(C#N)c(S)n(NS(=O)(=O)c3ccccc3)c(=O)c2C#N)cc1 | > 100 | –
7 | Cc1ccc2c(/C=C/c3ccc(N(C)C)cc3)ccc(C(C)C)cc1-2 | > 100 | –
8 | CCOC(=O)c1nnc2c(C#N)c(-c3ccccc3)c(C)n2c1N | > 100 | –
